The values below come from paper PMC12223841, “Compounds Isolated from Paepalanthus spp. (Eriocaulaceae) and Their Evaluation in Antimicrobial, Cytotoxic, and Antiviral Assays” (ACS Omega, 2025).

The assay relates to ZIKV replicon (BHK-21-RepZIKV_IRES-Neo). As to conditions: 10 μM, 48 h.

Consider `COc1c(O)cc2oc(-c3ccc(O)cc3)c(OC3OC(COC(=O)C=Cc4ccc(O)cc4)C(O)C(O)C3O)c(=O)c2c1O` [Compound 4, 6-Methoxykaempferol-3-O-β-D-6″-(p-coumaroyl)-glycopyranoside], for which the “Rluc signal (replicon activity remaining)” value came to 100%.
